Laboratory results as given in PubChem BioAssay AID1346428 (National Center for Advancing Translational Sciences (NCATS), 2018).
Values joined by “and” are separate entries in the source; they are usually repeats but may differ in a detail not shown here. Equal entries are not always repeated. About 1,200 (2.5%) of roughly 48,000 compounds were called active. Roughly 2% stayed inconclusive and do not appear here.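 The calls were made as follows: active = activation of at least 60% and not above a set upper limit (about 1 call in 100 departs from these limits); inconclusive = activation of 40% to 60%, or above that upper limit; inactive = activation under 40%.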 Some of the results follow.

Molecular target: Probable G-protein coupled receptor 32 (Homo sapiens) (UniProt O75388)
Test: qHTS for Agonists of Human Resolvin D1 Receptor DRV1; also: 0% is about no effect
Settings: CHO-K1 GPR32 beta-arrestin PathHunter luminescence, 90 min; at 76.9 µM; stronger effect = higher value; zero percent set by DMSO-only wells
How it was run: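 PathHunter beta-arrestin recruitment in CHO-K1 cells stably expressing ProLink-tagged GPR32. Cells were exposed to compound for 90 min at 37 C, then chemiluminescence was read after 1 h detection at ambient temperature; DMSO served as basal control.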

UniProt O75388, sequence (O75388 whole entry, looked up): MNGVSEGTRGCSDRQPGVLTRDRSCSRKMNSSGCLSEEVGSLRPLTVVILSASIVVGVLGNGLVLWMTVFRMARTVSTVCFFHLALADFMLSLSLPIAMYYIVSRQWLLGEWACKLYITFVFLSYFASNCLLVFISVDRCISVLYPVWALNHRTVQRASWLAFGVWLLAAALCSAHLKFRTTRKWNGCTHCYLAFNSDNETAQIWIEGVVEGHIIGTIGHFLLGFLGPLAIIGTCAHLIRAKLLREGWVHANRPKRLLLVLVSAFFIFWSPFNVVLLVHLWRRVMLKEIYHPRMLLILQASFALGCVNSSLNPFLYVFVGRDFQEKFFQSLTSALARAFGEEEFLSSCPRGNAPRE

Structure (SMILES)	activation
COc1ccc(C)cc1Nc1cc(C)nc(C)n1	inactive: -8.32%
CCOc1ccc(NC(=O)CCCOc2cc(=O)n(C)c3ccccc23)cc1	inactive: -0.0397%
Clc1ccccc1CSc1nnc(C2CCNCC2)o1	inactive: -3.73%
COc1ccc(N2CC(NC(=O)C3CCCCC3)CC2=O)cc1OC (configuration not stated)	inactive: 4.36%
COc1ccc(N2CCN(C(=O)CN3C(=O)COc4ccc(S(=O)(=O)N5CCC(C)CC5)cc43)CC2)cc1	inactive: -7.18%
COc1ccc(NC(=O)c2oc3ccccc3c2NC(=O)Cc2coc3ccc(C)cc23)cc1	inactive: -3.23%
Cc1ccc2nc(-c3ccc(C)o3)c(Nc3ccc4c(c3)OCCO4)n2c1	inactive: -14.5%
CCS(=O)(=O)c1oc(-c2ccc(F)cc2)nc1S(=O)(=O)c1ccccc1	inactive: -18.2%
O=C(CSc1nc2ncccc2o1)Nc1cccc(C(F)(F)F)c1	inactive: -12.6%
CCCCN(CC)C(=O)c1nn(-c2ccc(OC)cc2)c(=O)c2c1c1ccccc1n2C	inactive: -21.6%
COc1ccc(OC)c(CNC(=O)c2ccc3c(c2)c(C)c(C)n3C)c1	inactive: -24.3%
Cc1ccc(C)c(N2CCN(C(=O)c3cc4c(=O)oc5ccccc5c4s3)CC2)c1	inactive: 4.56%
O=C(Cn1c(=O)n(-c2ccccc2)c(=O)c2ccc(C(=O)NCc3ccc4c(c3)OCO4)cc21)Nc1ccc(Br)cc1	inactive: -9.85%
CCOc1cc(CNC(=O)c2ccc3nc(C(C)C)oc3c2)cc(OCC)c1OCC	inactive: -0.746%
COc1ccc(N2CCN(S(=O)(=O)CCNC(=O)Cc3ccc(OC)c(OC)c3)CC2)cc1	inactive: -9.74%
Cc1nc(SCC(=O)Nc2nsc(-c3ccc(C(C)(C)C)cc3)n2)c2c3c(sc2n1)CCCC3	inactive: -28.9%
CCN(C(=O)CSc1nc(-c2ccccc2)no1)c1ccccc1	inactive: 2.26%
Nc1ncnc2c1ncn2[C@@H]1O[C@H](CO)[C@@H](O)[C@H]1O	inactive: 2.26% and inactive: 3.6%
COC(=O)c1ccc(NC(=O)CCc2c(C)nc3c(c(C)nn3C(C)(C)C)c2C)cc1	inactive: -3.1%
Cc1ccc2occ(-c3cc(-c4ccc(F)cc4)nc4c3COc3ccc(F)cc3-4)c(=O)c2c1	inactive: 18.3%
Cc1nn(-c2ccccc2)c(C)c1/C=N/N1CCN(Cc2ccccc2)CC1	inactive: -1.83%
C=C1C(=C/C=C2\CCC[C@]3(C)[C@@H]([C@H](C)/C=C/[C@@H](O)C4CC4)CC[C@@H]23)C[C@@H](O)C[C@@H]1O	active: 107%
Cc1ccccc1CSc1nc(-c2cccc(F)c2)nc2c1Cc1c(CO)cnc(C)c1O2	inactive: 28.6%
CN(C)C(=O)c1ccc2c(c1)N(CC(=O)NCc1ccccc1Cl)C(=O)C1CCCCN21 (configuration not stated)	inactive: -14.2%
COc1ccc(OC)c(CNC(=O)c2nn(C)c3c2CS(=O)(=O)c2ccccc2-3)c1	inactive: -5.29%
CCCN1CCN(CC2=C(C(=O)OCC)C(c3ccc(OC(C)C)cc3)NC(=O)N2)CC1 (configuration not stated)	inactive: -0.462%

Structure (SMILES)	activation
COc1ccccc1-c1c(C)nn2c(N3CCN(c4ccccc4)CC3)cc(C)nc12	inactive: -12.5%
CCOc1ccc(-c2nc(CSCC(=O)NCCc3ccc(OCC)c(OCC)c3)c(C)o2)cc1	inactive: 2.48%
CCn1c(=O)c(=O)n(CC)c2cc(N3CCCCC3)c(NC(=O)c3ccccc3OC)cc21	inactive: 11.7%
CSc1nc2c(sc3ccccc32)c(=O)n1Cc1ccc(C)cc1	inactive: -11.8%
O=C(NCCc1ccc(Cl)cc1)C(=O)NCC(c1cccs1)S(=O)(=O)c1cccs1 (configuration not stated)	inactive: -1.57%
COc1ccc(OC)c(CNC(=O)CN2N=C(c3ccc(Cl)cc3)CCC2=O)c1	inactive: -20%
CCCOC1(C(F)(F)F)NC(=O)N(c2cccc(Cl)c2)C1=O (configuration not stated)	inactive: -1.65%
C=Cc1ccc(Cn2c(C(=O)O)c(CNC3CCCCC3)c3ccc(OC)cc32)cc1	inactive: 22.7%
COc1cccc(CNC(=O)C(=O)NCC(c2ccc3c(c2)OCO3)N2CCOCC2)c1 (configuration not stated)	inactive: -24.9%
CCC(C)NC(=O)CSc1c2c(nc3cc(Cl)ccc13)CCCC2 (configuration not stated)	inactive: 2.26%
O=C(Nc1ccc2nc(SCC(=O)N3CCOCC3)sc2c1)c1ccc(Br)cc1	inactive: 15%
COc1ccc(C(=O)Nc2cc(-c3nc4ccccc4s3)ccc2OC)cc1	inactive: -23.3%
CCOC(=O)c1ccccc1NC(=O)Nc1cc2c(cc1N1CCCC1)n(C)c(=O)n2C	inactive: -2.41%
CCOc1ccc(NC(=O)CSc2nnc(CNC(=O)C34CC5CC(CC(C5)C3)C4)n2CC)cc1	inactive: 13.3%
COc1ccc(-n2nc3cc(C)c(NC(=O)Cc4ccc(Cl)cc4)cc3n2)cc1	inactive: -1.07%
Cc1cc2oc(C(=O)Nc3cccc(-c4nc5ccccc5o4)c3)c(C)c2cc1C	inactive: 0.485%
CCc1ccc(NC(=O)CSc2nc(-c3cccc(OC)c3)nc3c2Cc2c(CO)cnc(C)c2O3)cc1	inactive: -4%
CC(Oc1ccccc1)C(=O)Nc1ccccc1C(=O)OCc1cc(=O)n2nc(C(C)C)sc2n1 (configuration not stated)	inactive: -7.33%
CCCN1CN=C(NS(=O)(=O)c2ccc(NC(C)=O)cc2)NC1	inactive: 7.07%
O=C(NCCc1ccccc1)c1ccc(Cn2c(SCc3ccccc3F)nc3cccnc32)cc1	inactive: -22.7%
O=C(CSc1nc(=O)n(Cc2ccncc2)c2c1CCC2)Nc1ccc(F)cc1F	inactive: -8.38%
COc1ccc(-c2noc(-c3ccc(N4CCN(c5ccccc5OC)CC4)c([N+](=O)[O-])c3)n2)cc1	inactive: 37.6%
CCCC12CN3CC(CCC)(CN(C1)C3c1ccc(OC(C)C)cc1)C2=O (configuration not stated)	inactive: -4.54%
COc1cccc(Cn2c(C)c(CNC3CCCCC3)c(C(=O)O)c2C)c1	inactive: -8.95%
COc1cc(C(=O)N(Cc2ccc(N(C)C)cc2)CC2CCCO2)cc(OC)c1OC (configuration not stated)	inactive: -13.3%
Cc1c(C(=O)N(C)C)sc2c1c(=O)n(-c1ccc(Cl)c(Cl)c1)c(=O)n2CC(=O)N1CCCCC1C (configuration not stated)	inactive: -15.8%
